# Source: the supplement of paper PMC3724861
# Some of the results follow.
# Tested on: T1, Caupolican (Caup) homeodomain DNA-binding domain
# T1 sequence: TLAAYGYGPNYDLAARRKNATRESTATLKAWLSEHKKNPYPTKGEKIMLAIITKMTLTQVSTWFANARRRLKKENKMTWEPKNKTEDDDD
# Assay: PBM E-score (8-mer, recovered from the published 9-mer minima) (E-score (dimensionless, -0.5 to 0.5)); Drosophila protein; higher = stronger relative binding preference, active = 0.31 or more
# Method in brief: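 Caup's homeodomain DNA-binding domain (residues 214-303) was produced by in vitro transcription and translation and applied at 100 nM to custom-designed protein binding microarrays. Each value is an enrichment score giving relative binding preference for a short DNA word; higher means stronger. Published 9-mer scores were the minimum of their two constituent 8-mer scores, and the 8-mer values were recovered from those minima. A cutoff of 0.31 marks candidate binding sequences.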
row,Sequence,PBM E-score
1,GGAATTAA,inactive: 0.108
2,CCGGAAAC,inactive: -0.0865
3,GGTCAGAA,inactive: -0.0475
4,GACAAGCC,inactive: 0.212
5,CGTCGACA,inactive: 0.116
6,ACCCTGCT,inactive: -0.0977
7,ACTCTCAG,inactive: -0.104
8,CTGCGATA,inactive: -0.0217
9,CCTTTTAA,inactive: -0.0428
10,GACACATC,inactive: 0.131
11,AAGAGCCA,inactive: -0.0558
12,CCAGGAGC,inactive: -0.311
13,GACACTCC,inactive: -0.0366
14,GGGGAAAC,inactive: -0.102
15,GTATTGAC,inactive: 0.21
16,ACGACCGA,≥ 0.0409
17,CTCATGGA,inactive: 0.0584
18,ATCCAATG,inactive: 0.045
19,AAGAGACC,inactive: -0.0707
20,GGGATGTA,inactive: 0.253
21,AACTGGTG,inactive: -0.017
22,CACCATCA,inactive: 0.00831
23,AAGCTGGA,inactive: -0.0863
24,TAGAGGCA,inactive: -0.0603
25,GTTTCTCA,inactive: 0.00502

row,Sequence,PBM E-score
1,CAATCGAA,inactive: 0.0361
2,CAAGCCCA,inactive: -0.0234
3,GATATAGC,inactive: 0.0239
4,AAGTCCGA,inactive: -0.0277
5,TAAAGGGA,inactive: -0.0105
6,AGATACGG,inactive: -0.0361
7,AGATGGCG,inactive: -0.098
8,GTATTTTA,inactive: 0.146
9,AGGTGTGG,inactive: -0.15
10,ACCTGTGA,inactive: 0.0824
11,GTCTAGGA,inactive: -0.0374
12,GGGAGCAC,inactive: -0.143
13,ATCATTCG,inactive: 0.0941
14,CACCATAA,inactive: 0.0632
15,GAAGTTAC,inactive: 0.114
16,GATTGTAC,inactive: 0.235
17,CCAATACA,inactive: 0.246
18,ATCGCGAG,inactive: -0.00263
19,AGTAGCAG,inactive: 0.0982
20,CAAGCCCG,inactive: -0.0915
21,ATAAGTCA,inactive: 0.046
22,TCTGAGAA,≥ 0.0563
23,ACTTATAA,inactive: 0.103
24,GCGCCGTA,inactive: -0.0821
25,CACTGATG,inactive: 0.107

row,Sequence,PBM E-score
1,ATAAAGAG,inactive: -0.00301
2,AAACGTGT,active: 0.31
3,GACGGCCA,inactive: -0.221
4,CAAAGGAG,inactive: -0.0814
5,CATGACGA,inactive: 0.0682
6,TCATGAGA,inactive: 0.0179
7,ATCCCGTC,inactive: -0.0419
8,CAGTCCTC,inactive: -0.128
9,AAGGGGGT,inactive: -0.212
10,AATGGTCG,inactive: -0.0664
11,ACGGTACA,inactive: 0.207
12,ACTTTGAG,inactive: -0.0584
13,AGTAAATG,inactive: 0.144
14,AACGATCC,inactive: -0.072
15,CAAGCCGC,inactive: -0.178
16,CCCTGCCC,inactive: -0.285
17,GCTTTGTA,inactive: 0.124
18,ATTGCATG,inactive: 0.202
19,GGGATGGA,inactive: -0.137
20,CCGAAAGC,inactive: -0.0814
21,TAACGTGA,inactive: 0.0644
22,CATGTTCG,active: 0.399
23,GCAGACTA,inactive: -0.00336
24,AAGTGGCT,inactive: -0.132
25,CGTCCCTC,inactive: -0.189

row,Sequence,PBM E-score
1,CCGTTTCC,inactive: -0.15
2,GATGTTAC,inactive: 0.295
3,GGCATAGA,inactive: -0.00126
4,AGCCACTC,inactive: -0.119
5,CGCTGCAG,inactive: -0.101
6,TCAGAGGA,inactive: -0.0823
7,AAGTAGTC,inactive: 0.159
8,CAAGGCCG,inactive: -0.103
9,ACGCTGCG,inactive: -0.141
10,CTTACCTC,inactive: -0.149
11,ATCCCAGC,inactive: -0.137
12,CGAAAAAA,inactive: 0.0305
13,GTAGAAAC,inactive: 0.0787
14,AAAATTTT,inactive: 0.0308
15,ATTTGCTA,inactive: 0.0587
16,AACCGTAG,inactive: -0.0767
17,AGTCAAGA,inactive: -0.0668
18,AAGGTGAA,inactive: -0.03
19,CCCGCGAG,inactive: -0.239
20,AAAATCAC,≥ 0.164
21,AAAGTTCG,inactive: -0.00941
22,CGAACCAA,inactive: -0.018
23,GGACTTAA,inactive: -0.0309
24,AGTCCTAT,inactive: 0.0606
25,CAGTTCCA,inactive: 0.0358

row,Sequence,PBM E-score
1,CACACTGC,inactive: -0.0174
2,ACCCAGTC,inactive: -0.116
3,CGAAGCAA,inactive: 0.0454
4,CGCTCAAG,inactive: -0.197
5,TCCCAACA,inactive: 0.0498
6,CCTCAACA,inactive: 0.0443
7,ATCCTGAG,inactive: -0.0222
8,CCACTGGA,inactive: -0.0569
9,CTTAAAGC,inactive: -0.0482
10,AATTACAG,inactive: 0.244
11,CCTATCCC,inactive: -0.056
12,ATGTGCCA,inactive: 0.119
13,CCAAAATC,inactive: -0.0159
14,GCGCCACA,inactive: -0.129
15,AAATTTTA,inactive: 0.0807
16,AGACGCCC,inactive: -0.207
17,CCATGGCG,inactive: -0.139
18,CCGATTGA,inactive: 0.0721
19,AACGTGAT,inactive: 0.105
20,CCTTTCCG,inactive: -0.139
21,AACTCAGA,≥ 0.0703
22,AAAATGCA,inactive: 0.0534
23,CTCCCGAA,inactive: -0.138
24,ATCCACTA,inactive: 0.0686
25,CACAGTGC,inactive: -0.0778

row,Sequence,PBM E-score
1,CTTCACGC,inactive: -0.00498
2,CAGCTAAA,inactive: 0.0657
3,CAACATGA,active: 0.344
4,AGCAGTAT,inactive: -0.00186
5,AACGTATT,inactive: 0.0772
6,GGGGAGAC,inactive: -0.203
7,GGAAACCC,inactive: -0.0884
8,GCGTTAAA,inactive: -0.0823
9,AAACCAAT,inactive: 0.114
10,GCATATCA,inactive: 0.0447
11,GCCTTTCC,inactive: -0.14
12,ATGAGATC,inactive: 0.111
13,CAAATTAA,inactive: 0.0851
14,CAAAACGA,inactive: 0.0495
15,AATACAAT,inactive: 0.226
16,AACGGTGA,inactive: 0.0278
17,ATCCGTTC,inactive: -0.0452
18,CACGACGA,inactive: 0.0355
19,AAGTGGAG,inactive: -0.0238
20,CATTCTGC,inactive: -0.0716
21,AATCATGC,inactive: 0.0523
22,CTCAAGCA,inactive: 0.0108
23,ATCACCTA,inactive: 0.0852
24,ACACATGC,inactive: 0.236
25,GTCTCGTA,inactive: 0.0548

row,Sequence,PBM E-score
1,GAGGATCC,inactive: -0.0915
2,CCTTCCGC,inactive: -0.195
3,AATAGTTA,inactive: 0.13
4,ACGCCTAC,inactive: -0.105
5,GAATGACC,inactive: -0.0161
6,GAACACCA,inactive: 0.195
7,ATTAACAA,active: 0.342
8,AGAGCCCG,inactive: -0.251
9,ACTCATCA,inactive: 0.0128
10,ACCGTTAT,inactive: 0.0036
11,AGGCACCA,≥ -0.0964
12,AATCGATA,inactive: 0.143
13,CCTCCAAG,inactive: -0.0978
14,TCATCAAA,inactive: 0.0167
15,CACATCTC,inactive: -0.00827
16,TCGTTAAA,inactive: 0.0672
17,TCGATAGA,inactive: 0.0878
18,AAGTGGGG,inactive: -0.203
19,AGCACTTC,inactive: -0.00216
20,GAGCAATA,inactive: 0.0284
21,CATTAGTA,inactive: 0.153
22,ACCCATCC,inactive: -0.0713
23,TGGGTGAA,inactive: 0.0348
24,GACCAGGA,inactive: -0.00862
25,GCGGCTAA,inactive: -0.139

row,Sequence,PBM E-score
1,ACAGGAAT,inactive: 0.222
2,AGGATAAG,inactive: -0.0656
3,CACCTGAG,inactive: -0.114
4,CGAATATC,inactive: 0.0265
5,TAGCATGA,inactive: 0.231
6,TATTCTAA,inactive: 0.116
7,TTCATCAA,inactive: 0.0566
8,ATTCAATA,≥ 0.174
9,CGATCGAC,inactive: 0.00154
10,GTCTAAAC,inactive: 0.0391
11,CAATTCAG,inactive: -0.0441
12,CTACTATC,inactive: 0.134
13,ATCAGTAC,inactive: 0.201
14,CAGACCCG,inactive: -0.173
15,CCCCATGC,inactive: -0.233
16,AAGAACGT,inactive: 0.0414
17,TTCGTCAA,inactive: 0.074
18,CAGCGTGC,inactive: -0.15
19,TGCCTCCA,≥ -0.121
20,ATTTTCAC,inactive: 0.0421
21,CCAGTCCC,inactive: -0.12
22,ATCAACAT,active: 0.371
23,AGGTAAGA,inactive: 0.00531
24,CTAGCGAG,inactive: -0.138
25,AATTATAG,inactive: 0.105

row,Sequence,PBM E-score
1,GCGTATGA,inactive: 0.0288
2,AACCAATG,inactive: 0.0915
3,AAGCCAAC,inactive: -0.0127
4,CCTACCGA,inactive: -0.0361
5,AAAGGGTG,inactive: -0.0752
6,ACGGATTG,inactive: -0.00867
7,GATGCTGC,inactive: -0.0365
8,ACATGTGC,active: 0.351
9,CGGGTCGA,inactive: -0.093
10,GATAAACC,inactive: -0.00443
11,GGGGTTGA,inactive: -0.0779
12,CTAGAGAC,inactive: -0.12
13,CTCGGAAG,inactive: -0.102
14,AACTACCG,inactive: -0.0413
15,AACATCGT,inactive: 0.269
16,CGTTGGCA,inactive: -0.0585
17,ACTGTCAG,inactive: 0.119
18,CGCAATCC,inactive: -0.0118
19,AATTACTC,inactive: 0.117
20,GTTAGGCA,inactive: -0.02
21,GAGGTCTA,inactive: -0.0762
22,ACCGTGTG,inactive: 0.115
23,ACTCCTTC,inactive: -0.0484
